{
  "source": "the BET-seq Pho4 binding data (Le et al. 2018)",
  "note": "Some of the results follow. Values were computed here from the reads of four pooled replicates and scatter widely.",
  "data": [
    {"molecular_target": "T1, Pho4 (S. cerevisiae) (UniProt P07270)", "T1 sequence": "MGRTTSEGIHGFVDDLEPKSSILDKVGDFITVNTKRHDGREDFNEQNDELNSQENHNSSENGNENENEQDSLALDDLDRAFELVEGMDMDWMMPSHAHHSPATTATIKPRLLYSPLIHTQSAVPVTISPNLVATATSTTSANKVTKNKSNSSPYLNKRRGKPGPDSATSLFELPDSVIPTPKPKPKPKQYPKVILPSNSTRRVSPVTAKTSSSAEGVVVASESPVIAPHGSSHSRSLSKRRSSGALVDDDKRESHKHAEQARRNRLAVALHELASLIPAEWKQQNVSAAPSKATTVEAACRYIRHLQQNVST", "assay": "relative binding free energy (BET-seq); higher = weaker binding", "details": "reference: library average", "units": {"relative binding free energy": "kcal/mol"}, "values": [
      {"sequence": "TTTTGCACGTGAGTCG", "relative binding free energy": 0.18},
      {"sequence": "GGTGTCACGTGATAAT", "relative binding free energy": 0.28},
      {"sequence": "TAGGGCACGTGTTGCT", "relative binding free energy": -0.14},
      {"sequence": "CTTAACACGTGAGTGT", "relative binding free energy": 0.14},
      {"sequence": "AAGTACACGTGGTTGG", "relative binding free energy": -0.01},
      {"sequence": "AGGTTCACGTGGTTGA", "relative binding free energy": 0.28},
      {"sequence": "GGTGTCACGTGCGGGA", "relative binding free energy": 0.13},
      {"sequence": "GGCGTCACGTGTTTTT", "relative binding free energy": 0.3},
      {"sequence": "TCTTTCACGTGCGGTT", "relative binding free energy": 0.3},
      {"sequence": "CTTGGCACGTGTTGGT", "relative binding free energy": -0.05},
      {"sequence": "TGTAACACGTGTCTTT", "relative binding free energy": 0},
      {"sequence": "CGCGTCACGTGGGCTT", "relative binding free energy": 0.08},
      {"sequence": "TTAATCACGTGGCTTT", "relative binding free energy": 0.17},
      {"sequence": "CGGGTCACGTGGGGAC", "relative binding free energy": -0.09},
      {"sequence": "CGGGTCACGTGGCGTG", "relative binding free energy": -0.02},
      {"sequence": "TTTTTCACGTGGGAAT", "relative binding free energy": 0.29},
      {"sequence": "TTGGGCACGTGTAATA", "relative binding free energy": -0.08},
      {"sequence": "AGGATCACGTGGGTGT", "relative binding free energy": 0},
      {"sequence": "TTTGTCACGTGTTGTA", "relative binding free energy": 0.18},
      {"sequence": "TATAGCACGTGAGTAA", "relative binding free energy": 0.15},
      {"sequence": "TATGGCACGTGTATTG", "relative binding free energy": -0.09},
      {"sequence": "TTGTGCACGTGGGCTG", "relative binding free energy": -0.15},
      {"sequence": "TACGTCACGTGGCGGG", "relative binding free energy": -0.11},
      {"sequence": "TGGTTCACGTGGCATC", "relative binding free energy": 0.3},
      {"sequence": "GTGAACACGTGTTGGA", "relative binding free energy": 0.04},
      {"sequence": "TGTATCACGTGATGGC", "relative binding free energy": 0.26},
      {"sequence": "TTATGCACGTGGTCGA", "relative binding free energy": -0.07},
      {"sequence": "GGGCGCACGTGTGGCC", "relative binding free energy": 0.01},
      {"sequence": "AGGTTCACGTGTGGCT", "relative binding free energy": 0.21},
      {"sequence": "TATGACACGTGTGGTG", "relative binding free energy": 0.08},
      {"sequence": "TGAGGCACGTGGGCTA", "relative binding free energy": -0.31},
      {"sequence": "GGTGCCACGTGGGCGA", "relative binding free energy": -0.32},
      {"sequence": "CATGTCACGTGGGTCT", "relative binding free energy": -0.06},
      {"sequence": "AGAGTCACGTGTTGGC", "relative binding free energy": 0.14},
      {"sequence": "GTGCTCACGTGATGTT", "relative binding free energy": 0.46},
      {"sequence": "TTGGACACGTGAGTAT", "relative binding free energy": 0.29},
      {"sequence": "AAGTACACGTGGAATG", "relative binding free energy": 0.18},
      {"sequence": "GTGTTCACGTGTGCTC", "relative binding free energy": 0.29},
      {"sequence": "TTCGTCACGTGGAGGT", "relative binding free energy": 0.05},
      {"sequence": "TCATTCACGTGGAGGG", "relative binding free energy": 0.36},
      {"sequence": "GGGGACACGTGGGCGT", "relative binding free energy": -0.11},
      {"sequence": "GTTGGCACGTGAGGGG", "relative binding free energy": 0.22},
      {"sequence": "TGGGTCACGTGAAGGT", "relative binding free energy": 0.39},
      {"sequence": "TGGTTCACGTGATGGA", "relative binding free energy": 0.39},
      {"sequence": "GTGATCACGTGGTATG", "relative binding free energy": 0.03},
      {"sequence": "GGAGTCACGTGTAGGT", "relative binding free energy": 0.11},
      {"sequence": "AGGGGCACGTGGAGTG", "relative binding free energy": -0.06},
      {"sequence": "TGGTGCACGTGGGAGT", "relative binding free energy": -0.06},
      {"sequence": "TGTGTCACGTGGTCGC", "relative binding free energy": 0.04},
      {"sequence": "AGTGGCACGTGGGGAT", "relative binding free energy": -0.15},
      {"sequence": "CGTTACACGTGCAGGT", "relative binding free energy": 0.12},
      {"sequence": "ATTGGCACGTGTGTAA", "relative binding free energy": -0.07},
      {"sequence": "ATTATCACGTGATTAA", "relative binding free energy": 0.31},
      {"sequence": "AGATTCACGTGGGGAT", "relative binding free energy": 0.16},
      {"sequence": "GGGTGCACGTGACGAT", "relative binding free energy": 0.03},
      {"sequence": "TGGATCACGTGATTCT", "relative binding free energy": 0.32},
      {"sequence": "ATTTTCACGTGATACG", "relative binding free energy": 0.21},
      {"sequence": "TGATACACGTGTGTTA", "relative binding free energy": 0.05},
      {"sequence": "TCGAGCACGTGTGTGG", "relative binding free energy": -0.1},
      {"sequence": "TGGGGCACGTGATCGT", "relative binding free energy": -0.03},
      {"sequence": "CTTTTCACGTGGTGCA", "relative binding free energy": 0.19},
      {"sequence": "GTTTTCACGTGTCGCG", "relative binding free energy": 0.25},
      {"sequence": "ATTTCCACGTGTTTGT", "relative binding free energy": 0.04},
      {"sequence": "GGGTTCACGTGACCGG", "relative binding free energy": 0.34},
      {"sequence": "TTATCCACGTGAATGG", "relative binding free energy": 0.46},
      {"sequence": "TGGTACACGTGCATTG", "relative binding free energy": 0.03},
      {"sequence": "TGTTCCACGTGTTTTA", "relative binding free energy": 0.14},
      {"sequence": "GATCGCACGTGGGTTA", "relative binding free energy": -0.04},
      {"sequence": "AAGTTCACGTGTATGT", "relative binding free energy": 0.27},
      {"sequence": "CTGTGCACGTGTGTCG", "relative binding free energy": -0.02},
      {"sequence": "GGGCGCACGTGTAGTG", "relative binding free energy": -0.04},
      {"sequence": "ATCCGCACGTGTTTGG", "relative binding free energy": -0.07},
      {"sequence": "AGTTTCACGTGCAGTT", "relative binding free energy": 0.21},
      {"sequence": "GGGATCACGTGCGAAT", "relative binding free energy": 0.29},
      {"sequence": "GGGTTCACGTGGAGCT", "relative binding free energy": 0.36},
      {"sequence": "TATGCCACGTGGAAGG", "relative binding free energy": 0},
      {"sequence": "CGTTGCACGTGGGGAG", "relative binding free energy": -0.1},
      {"sequence": "AATTGCACGTGAGAAT", "relative binding free energy": 0.23},
      {"sequence": "AAATGCACGTGTTGGA", "relative binding free energy": 0.06},
      {"sequence": "TTAGACACGTGCGGTT", "relative binding free energy": -0.02},
      {"sequence": "TTTTGCACGTGTTGAT", "relative binding free energy": 0.15},
      {"sequence": "GTGTTCACGTGCAGTT", "relative binding free energy": 0.33},
      {"sequence": "GCTGACACGTGGGTAT", "relative binding free energy": 0.06},
      {"sequence": "AGGTTCACGTGTTGGT", "relative binding free energy": 0.37},
      {"sequence": "CAGGCCACGTGTAGGG", "relative binding free energy": -0.09},
      {"sequence": "GTTCGCACGTGTTGTG", "relative binding free energy": 0.1},
      {"sequence": "CTGGGCACGTGGGAGT", "relative binding free energy": -0.27},
      {"sequence": "AGCAGCACGTGGAGTT", "relative binding free energy": 0.03},
      {"sequence": "GTGGGCACGTGGTATG", "relative binding free energy": -0.15},
      {"sequence": "CTTTGCACGTGGGGGA", "relative binding free energy": -0.13},
      {"sequence": "TTGGGCACGTGTCGAG", "relative binding free energy": -0.15},
      {"sequence": "TCGGGCACGTGATAGT", "relative binding free energy": -0.14},
      {"sequence": "GGCGGCACGTGAGAAT", "relative binding free energy": 0.35},
      {"sequence": "GTATTCACGTGGAATA", "relative binding free energy": 0.31},
      {"sequence": "CGTCACACGTGTGTGG", "relative binding free energy": 0.12},
      {"sequence": "ATAGGCACGTGGTTCG", "relative binding free energy": -0.1},
      {"sequence": "GGGGGCACGTGAAACG", "relative binding free energy": 0.01},
      {"sequence": "TGGGTCACGTGGTCAG", "relative binding free energy": 0.07},
      {"sequence": "CAAGGCACGTGAGGTG", "relative binding free energy": 0.09},
      {"sequence": "ACGTTCACGTGGATAT", "relative binding free energy": 0.26},
      {"sequence": "TTACACACGTGTGAGT", "relative binding free energy": 0.1},
      {"sequence": "ATTAGCACGTGTTTGG", "relative binding free energy": -0.09},
      {"sequence": "TAGTTCACGTGAGCGG", "relative binding free energy": 0.27},
      {"sequence": "TATTCCACGTGGGGCG", "relative binding free energy": 0},
      {"sequence": "TTCGTCACGTGAGTAG", "relative binding free energy": 0.22},
      {"sequence": "GAGTGCACGTGCTGGA", "relative binding free energy": 0.1},
      {"sequence": "ATATTCACGTGCGGAT", "relative binding free energy": 0.16},
      {"sequence": "GGTTACACGTGGTGGG", "relative binding free energy": 0.14},
      {"sequence": "GCTTTCACGTGGCGTT", "relative binding free energy": 0.27},
      {"sequence": "ATACACACGTGGTTGG", "relative binding free energy": -0.13},
      {"sequence": "TTGGTCACGTGGCAGG", "relative binding free energy": 0.12},
      {"sequence": "GGAGACACGTGGTCGG", "relative binding free energy": -0.06},
      {"sequence": "TTAGTCACGTGTTCGA", "relative binding free energy": 0.11},
      {"sequence": "GTTATCACGTGATATA", "relative binding free energy": 0.24},
      {"sequence": "TGTAACACGTGCGGTG", "relative binding free energy": 0.04}
    ]}
  ]
}
